PubChem BioAssay AID761 (NMMLSC, 2007)
Out of some 190,000 compounds screened, about 400 (0.21%) were called active. This list was built around the results that the source calls inconclusive (neither active nor inactive); the mix of calls is not that of the screen.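 Rule for the calls: active = percent activity GTP binding at least 20 points away from the 100% baseline, either down as inhibitor or up as activator; inconclusive = compound flagged as likely green fluorescent from well-wide comparison; inactive = the rest.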

The molecules below were run against Cell division control protein 42 homolog (Homo sapiens) (UniProt P60953) (assay: wildtype Cdc42 fluorescent GTP binding changes, either direction – biochemical, multiplex bead flow cytometry, Bodipy-GTP, primary screen (AID 761;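 note: median bead fluorescence of bound Bodipy-FL-GTP at 100 nM; 0% = excess unlabeled GTP control and 100% = no compound control; below 100% means less GTP binding so inhibitor and above means activator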)). Conditions: GST-Cdc42 beads, at 10 µM, actives lie on both sides.
UniProt P60953, sequence (P60953 whole entry, looked up): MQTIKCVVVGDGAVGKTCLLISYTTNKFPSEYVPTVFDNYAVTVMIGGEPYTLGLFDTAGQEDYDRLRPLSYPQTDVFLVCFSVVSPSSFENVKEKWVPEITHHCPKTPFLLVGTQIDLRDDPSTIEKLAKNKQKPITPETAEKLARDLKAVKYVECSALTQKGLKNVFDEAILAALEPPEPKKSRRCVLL
For `O=C(COc1ccc2oc(-c3ccccc3)cc(=O)c2c1)NCc1ccco1`, the percent activity (GTP binding) was inconclusive: 94%.
For `Cc1noc(N)c1C1(O)C(=O)Nc2c(Cl)cc(Cl)cc21` (centres undefined), the percent activity (GTP binding) was inactive: 90%.
`O=C(COC(=O)c1ccccc1S(=O)(=O)N1CCCCC1)NCC(F)(F)F` was tested, and the percent activity (GTP binding) was inactive: 104%.
In the case of `CN(C)C(=O)c1cc(C(=O)c2ccccc2Cl)c[nH]1`, the percent activity (GTP binding) is reported as inactive: 92%.
For `COc1ccc2nc(Nc3nc4ccc(NC(C)=O)cc4s3)sc2c1`, the percent activity (GTP binding) was inconclusive: 93%.
In the case of `CCCc1nc(SCC(=O)N2CCC(Cc3ccccc3)CC2)c2c(=O)n(C)c(=O)n(C)c2n1`, the percent activity (GTP binding) is reported as inactive: 93%.
In the case of `COCCNC(=S)Nc1cc(OC)c(OC)cc1C#N`, the percent activity (GTP binding) is reported as active: 60%.
For `Cc1nnc(SCC(=O)NC2CC2)n1CC1CCCO1` (centres undefined), the percent activity (GTP binding) was inconclusive: 99%.
In the case of `CSc1nnc2c(n1)OC(C)=Nc1ccccc1-2`, the percent activity (GTP binding) is reported as inconclusive: 85%.
In the case of `COC(=O)c1ccc(CSc2n[nH]c(=S)s2)o1`, the percent activity (GTP binding) is reported as inconclusive: 104%.
With `Cc1sc(NC(=S)Nc2ccc(F)cc2)c(C(N)=O)c1C` the percent activity (GTP binding) was inconclusive: 94%.
`CCOc1cc(NC(=S)NCCCN2CCOCC2)c(OCC)cc1NC(=O)C1CCCCC1` was tested, and the percent activity (GTP binding) was inactive: 110%.
With `Cc1[nH]c2ccccc2c1C(=O)C(=O)NCc1cccs1` the percent activity (GTP binding) was inconclusive: 91%.
`CC(=O)c1ccc(NC(=O)C(C)N2CCN(C/C=C/c3ccccc3)CC2)cc1` (centres undefined) was tested, and the percent activity (GTP binding) was inconclusive: 496%.
For `CC(=O)Nc1ccc(S(=O)(=O)NCC(=O)NCCc2ccc(S(N)(=O)=O)cc2)cc1`, the percent activity (GTP binding) was inconclusive: 95%.
`CC[C@H](C)[C@H](NC(=O)c1ccc(Cl)cc1)C(=O)OCC(=O)c1ccc2c(c1)NC(=O)CO2` was tested, and the percent activity (GTP binding) was inconclusive: 100%.
With `CCC(C)NC(=O)CSc1nnc(-c2ccoc2C)n1CC1CCCO1` (centres undefined) the percent activity (GTP binding) was inconclusive: 105%.
For `CC(C)Oc1ccccc1C1CC(=O)Nc2cc3c(cc21)OCCO3` (centres undefined), the percent activity (GTP binding) was inconclusive: 108%.
In the case of `CCCCN(CCCC)CC(O)CN1C(=O)NC(C)(C)C1=O` (centres undefined), the percent activity (GTP binding) is reported as inconclusive: 107%.
`COc1cc(SC#N)ccc1N=Cc1c(C)[nH]n(-c2ccc(C)c(C)c2)c1=O` was tested, and the percent activity (GTP binding) was inactive: 88%.
In the case of `O=C(CCCN1C(=O)/C(=C/c2cccc(Br)c2)SC1=S)Nc1ccccn1`, the percent activity (GTP binding) is reported as inconclusive: 94%.
`Cc1nc2ccccc2c2oc(C(=O)Nc3ccc4c(c3)OCCO4)cc12` was tested, and the percent activity (GTP binding) was inconclusive: 85%.
In the case of `O=C(NCC(=O)N(c1cnc2ccccc2c1)C(C(=O)NC1CCCC1)c1ccncc1)c1ccco1` (centres undefined), the percent activity (GTP binding) is reported as inconclusive: 107%.
For `c1ccc(-c2noc(-c3cccc4ccccc34)n2)nc1`, the percent activity (GTP binding) was inconclusive: 92%.
For `Cc1nc(-c2cn[nH]c2)c2cc(C)oc2n1`, the percent activity (GTP binding) was inconclusive: 93%.
`COc1ccc(Nc2ccccc2C(=O)O)cc1` was tested, and the percent activity (GTP binding) was inconclusive: 121%.
With `COc1cc(CNCc2cccs2)ccc1OCc1ccccc1` the percent activity (GTP binding) was inconclusive: 106%.
`CC(=O)Nc1ccc(C(=O)OCC(=O)NCc2ccc(Cl)cc2)cc1` was tested, and the percent activity (GTP binding) was inactive: 100%.
For `CCCc1cc(-c2nc(N)ncc2-c2csc(C)n2)c(O)cc1OC`, the percent activity (GTP binding) was inconclusive: 93%.
For `CCOC(=O)N1CCC(NC(=O)c2ccc3nc4ccccc4c(=O)n3c2)CC1`, the percent activity (GTP binding) was inconclusive: 73%.
In the case of `Cc1cc(C)cc(Oc2nc(C(F)(F)F)nc3ccccc23)c1`, the percent activity (GTP binding) is reported as inconclusive: 96%.
In the case of `COc1ccc(-n2c(C)cc(C(=O)CN3C(=O)C(=O)N(Cc4ccccc4)C3=O)c2C)cc1`, the percent activity (GTP binding) is reported as inconclusive: 81%.
`O=C(O)C1=C[C@@H](c2ccccc2)C[C@@H](OCc2ccc(CO)cc2)O1` was tested, and the percent activity (GTP binding) was inactive: 90%.
In the case of `O=C(Cn1cnc2sc(-c3ccccc3)cc2c1=O)NCc1ccco1`, the percent activity (GTP binding) is reported as inconclusive: 106%.
With `Cn1nnnc1SCC(=O)Nc1ccccc1N1CCCCC1` the percent activity (GTP binding) was inconclusive: 104%.
With `COc1ccc(-c2cnc3c(c2)CCC3(C#N)C#N)cc1` the percent activity (GTP binding) was inconclusive: 94%.
`CCOC(=O)C1CCCN(Cc2cccc(Cl)c2)C1` (centres undefined) was tested, and the percent activity (GTP binding) was inconclusive: 105%.
In the case of `CC(=O)Nc1ccc(NC(=O)c2ccccc2C)cc1`, the percent activity (GTP binding) is reported as inactive: 103%.
With `O=C(CN1C(=O)COc2ccccc21)N1CCc2ccccc21` the percent activity (GTP binding) was inconclusive: 108%.
`CCS(=O)(=O)CCSC(=N)N` was tested, and the percent activity (GTP binding) was inactive: 105%.
`COC(=O)c1cc(NC(=O)c2ccccc2)c(=O)oc1/C=C/Nc1ccc(Oc2ccccc2)cc1` was tested, and the percent activity (GTP binding) was inconclusive: 286%.
In the case of `CC(C)CSc1n[nH]c(=S)s1`, the percent activity (GTP binding) is reported as inconclusive: 93%.
In the case of `CCc1cccc(C)c1NC(=S)NCC(c1cccnc1)N1CCOCC1` (centres undefined), the percent activity (GTP binding) is reported as inactive: 97%.
In the case of `Cc1ccc(C)n1-c1ccc(C(=O)N2CCOCC2)cc1`, the percent activity (GTP binding) is reported as inconclusive: 105%.
For `CC1CC(C)CN(CC(=O)N2CCCc3c2c(=O)oc2ccc(OCc4ccccc4)cc32)C1` (centres undefined), the percent activity (GTP binding) was inconclusive: 79%.
With `Cc1ccc(OCC(=O)N/N=C\c2c(C)[nH]n(-c3ccccc3)c2=O)c([N+](=O)[O-])c1` the percent activity (GTP binding) was inconclusive: 96%.
`COc1ccc(Cl)cc1N(CC(=O)NCC(C)C)S(=O)(=O)c1ccc(C)c([N+](=O)[O-])c1` was tested, and the percent activity (GTP binding) was inconclusive: 104%.
For `O=C(N/N=C/c1cccc([N+](=O)[O-])c1)c1ccccc1-n1cccc1`, the percent activity (GTP binding) was inactive: 97%.
For `Cc1nc2c(N=Nc3ccccc3F)c(N)nn2c(N)c1C#N`, the percent activity (GTP binding) was inconclusive: 80%.
With `COc1ccc(CN2CCCC(CNC(=O)c3ccc(F)cc3)C2)cc1OC` (centres undefined) the percent activity (GTP binding) was inactive: 97%.
For `COCCCNC(=O)CCCC(=O)NCCCOC`, the percent activity (GTP binding) was inconclusive: 108%.
`CC1=NN(C(=O)c2ccc(Cn3nc(C)cc3C)o2)C(O)(C(F)(F)F)C1` (centres undefined) was tested, and the percent activity (GTP binding) was inactive: 113%.
For `COc1cc(=O)n(C)c2ccccc12`, the percent activity (GTP binding) was inconclusive: 89%.
With `O=C(NCc1ccc2c(c1)OCO2)C1CCCN1S(=O)(=O)c1ccc(Cl)cc1` (centres undefined) the percent activity (GTP binding) was inactive: 96%.
For `CC(C)CNC(=O)C1CCCN(C(=O)NCc2ccccc2)C1` (centres undefined), the percent activity (GTP binding) was inconclusive: 97%.
`C=CCn1c(=O)c2ccccc2n2c(SCC(=O)NCc3cccs3)nnc12` was tested, and the percent activity (GTP binding) was inconclusive: 106%.
In the case of `Cc1cc(N2CCN(C)CC2)nc2ccc(NC(=S)NCc3cccs3)cc12`, the percent activity (GTP binding) is reported as inconclusive: 120%.
`Cc1cccc(NS(=O)(=O)c2cc([N+](=O)[O-])ccc2C)n1` was tested, and the percent activity (GTP binding) was inconclusive: 101%.
For `COc1ccccc1NC(=O)Cn1c(O)c(N=NC(=O)c2ccccc2O)c2ccccc21`, the percent activity (GTP binding) was inconclusive: 92%.
